# Positions count from the first letter of the chain named. Results are given in words; binding and its absence hold for the method and conditions named. Binding seen in cells or lysates may run through a third protein. Some results given as binding are weak or reduced against the parent protein; the word gives no strength.
# By UniProt entry, the sequences of proteins in these tests, tags left out. Residues count along the entry.
# UniProt P78536, residues 215-824: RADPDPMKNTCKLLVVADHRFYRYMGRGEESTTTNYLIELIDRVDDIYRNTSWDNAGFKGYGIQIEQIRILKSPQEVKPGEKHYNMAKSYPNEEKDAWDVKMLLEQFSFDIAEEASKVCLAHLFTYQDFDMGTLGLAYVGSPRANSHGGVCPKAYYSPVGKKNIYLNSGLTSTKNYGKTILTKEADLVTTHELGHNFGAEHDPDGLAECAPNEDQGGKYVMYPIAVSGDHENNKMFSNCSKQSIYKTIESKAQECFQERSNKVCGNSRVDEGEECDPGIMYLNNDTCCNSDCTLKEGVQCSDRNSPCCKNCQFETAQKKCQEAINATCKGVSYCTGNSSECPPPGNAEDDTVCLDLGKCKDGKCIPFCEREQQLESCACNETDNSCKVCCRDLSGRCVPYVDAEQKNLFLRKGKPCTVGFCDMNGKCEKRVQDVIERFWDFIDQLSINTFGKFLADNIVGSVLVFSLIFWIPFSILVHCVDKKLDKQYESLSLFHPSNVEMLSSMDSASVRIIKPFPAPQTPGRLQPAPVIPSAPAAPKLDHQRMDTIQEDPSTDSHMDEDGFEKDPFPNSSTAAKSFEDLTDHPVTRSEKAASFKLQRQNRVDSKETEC
# Key:
# [1] = biological target: T1, miR2_W538S_W545S (murine iRhom2 double mutant) (mouse) (UniProt Q80WQ6); assay: co-IP; HA-tagged iRhom construct as bait, anti-HA magnetic beads, cleared lysate of stably expressing HEK293 cells (50 mM Tris, 137 mM NaCl, 2 mM EDTA, 10 mM 1,10-phenanthroline, pH 7.5), 90 min, five washes; endogenous ADAM17 detected by western blot; also after cycloheximide treatment (pulse chase)
# T1 sequence: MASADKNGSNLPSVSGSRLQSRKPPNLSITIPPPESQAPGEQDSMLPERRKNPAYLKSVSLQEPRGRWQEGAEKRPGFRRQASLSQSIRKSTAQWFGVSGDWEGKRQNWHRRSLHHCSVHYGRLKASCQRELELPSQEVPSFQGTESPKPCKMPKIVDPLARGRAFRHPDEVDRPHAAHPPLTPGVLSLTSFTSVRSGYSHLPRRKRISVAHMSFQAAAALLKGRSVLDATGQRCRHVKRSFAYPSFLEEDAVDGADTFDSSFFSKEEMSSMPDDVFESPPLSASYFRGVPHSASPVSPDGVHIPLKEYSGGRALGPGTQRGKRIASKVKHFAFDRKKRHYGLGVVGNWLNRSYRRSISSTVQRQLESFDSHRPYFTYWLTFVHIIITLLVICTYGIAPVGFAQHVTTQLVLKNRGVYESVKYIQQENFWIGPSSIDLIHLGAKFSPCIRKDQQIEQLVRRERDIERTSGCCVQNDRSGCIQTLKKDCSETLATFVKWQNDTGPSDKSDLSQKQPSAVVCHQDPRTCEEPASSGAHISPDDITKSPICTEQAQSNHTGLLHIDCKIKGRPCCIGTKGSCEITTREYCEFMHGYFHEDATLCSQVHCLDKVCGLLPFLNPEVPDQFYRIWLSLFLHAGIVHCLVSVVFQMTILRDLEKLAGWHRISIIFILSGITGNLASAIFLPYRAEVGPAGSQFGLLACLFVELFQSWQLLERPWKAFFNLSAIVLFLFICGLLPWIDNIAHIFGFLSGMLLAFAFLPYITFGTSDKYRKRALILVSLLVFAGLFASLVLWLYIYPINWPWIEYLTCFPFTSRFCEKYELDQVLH
# [2] = biological target: T2, miR2_W545S (murine iRhom2 with W545S in iCERES) (mouse) (UniProt Q80WQ6); assay: as above
# T2 sequence: T1 sequence with S538W
substance,measurement,setting,value
"mature ADAM17 (mADAM17), endogenous in HEK293 cells (from UniProt P78536 215-824) (enzyme)",binding,[1],binds
same,binding,[2],binds

# — paper PMC8233286
